Test results as given in the supplement of paper PMC10369915.
Some of the results follow. No stated cut-off is given here; in the data, active = 3.2 or more and inactive = the rest. The signal is at background level for most entries.

B1: PLP1_Y207_D203G (peptide)
chain: AGARMYGVLPW
B2: PLP1_Y207_D203H (peptide)
chain: AHARMYGVLPW
B3: PLP1_Y207_D203N (peptide)
chain: ANARMYGVLPW
B4: PLP1_Y207_R205G (peptide)
chain: ADAGMYGVLPW
B5: PLP1_Y207_V209D (peptide)
chain: ADARMYGDLPW
B6: PLP1_Y207_W212R (peptide)
chain: ADARMYGVLPR
B7: PLP1_Y50 (peptide)
chain: KLIETYFSKNY
B8: PLP1_Y50_F51S (peptide)
chain: KLIETYSSKNY
B9: PLP1_Y50_F51S_YF (peptide)
chain: KLIETYSSKNF
B10: PLP1_Y50_L46P (peptide)
chain: KPIETYFSKNY
B11: PLPP7_Y172 (peptide)
chain: KRRGPYETSPS
B12: PLXND1_Y616 (peptide)
chain: DVRQEYPGMIL
B13: PMM2_Y145 (peptide)
chain: ERIEFYELDKK
B14: PMM2_Y145_D148N (peptide)
chain: ERIEFYELNKK
B15: PMM2_Y76 (peptide)
chain: NGLVAYKDGKL
B16: PMP22_Y117 (peptide)
chain: SAAAIYTVRHP
B17: PMP22_Y153_G150C (peptide)
chain: LSCVIYVILRK
B18: PMP22_Y153_R157G (peptide)
chain: LSGVIYVILGK
B19: PNMT_Y256_R254H (peptide)
chain: RDLHTYIMPAH
B20: POLE_Y100 (peptide)
chain: KVALPYKPYFY
B21: POLE_Y100_P99L_YF (peptide)
chain: KVALLYKPFFF
B22: POLR1C_Y33_N32I (peptide)
chain: DFPGIYSGYDD
B23: POLR1C_Y33_N32I_YF (peptide)
chain: DFPGIYSGFDD
B24: POLR1C_Y33_YF (peptide)
chain: DFPGNYSGFDD
B25: POLR1C_Y36_N32I (peptide)
chain: GIYSGYDDAWD
B26: POLR1C_Y36_N32I_YF (peptide)
chain: GIFSGYDDAWD
B27: POLR1C_Y36_YF (peptide)
chain: GNFSGYDDAWD
B28: POLR2A_Y1109_Y1109H (peptide)
chain: LNTFHHAGVSA
B29: POLR3A_Y714 (peptide)
chain: LLKAKYELLNA
B30: POR_Y564_C566Y_YF (peptide)
chain: ETLLFYGFRRS
B31: POR_Y564_YF (peptide)
chain: ETLLFYGCRRS
B32: POR_Y573 (peptide)
chain: RSDEDYLYREE
B33: POR_Y573_YF (peptide)
chain: RSDEDYLFREE
B34: POR_Y575 (peptide)
chain: DEDYLYREELA
B35: POR_Y575_YF (peptide)
chain: DEDFLYREELA
B36: POR_Y604 (peptide)
chain: QSHKVYVQHLL
B37: PPA2_Y59_S61P (peptide)
chain: NVTGHYIPPFH

What was measured:
Assay in all cases: enrichment score (SH2-bound / input frequency) (ratio); bacterial display of known human phosphotyrosine sites (pTyr-Var adds point mutants) read by sequencing; higher = stronger binding; tyrosines were phosphorylated by kinases first
Conditions in all cases: peptide library: pTyr-Var
[1] = target: SHP2 C-SH2 domain E139D
[2] = target: SHP2 C-SH2 domain wild-type
[3] = target: SHP2 N-SH2 domain L43F
[4] = target: SHP2 N-SH2 domain T42A
[5] = target: SHP2 N-SH2 domain T52S
[6] = target: SHP2 N-SH2 domain wild-type
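Further: displayed peptides selected on beads carrying the immobilized SH2 domain, with library peptides lacking any tyrosine serving as negative controls.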

| Binder | enrichment score [1] | enrichment score [2] | enrichment score [3] | enrichment score [4] | enrichment score [5] | enrichment score [6] |
| --- | --- | --- | --- | --- | --- | --- |
| B1 | inactive: 0.761 | inactive: 0.738 | inactive: 0.817 | inactive: 0.693 | inactive: 0.677 | inactive: 0.955 |
| B2 | inactive: 0.769 | inactive: 0.798 | inactive: 0.628 | inactive: 0.642 | inactive: 0.711 | inactive: 0.8 |
| B3 | inactive: 0.826 | inactive: 0.744 | inactive: 0.922 | inactive: 0.619 | inactive: 0.687 | inactive: 1.07 |
| B4 | inactive: 0.795 | inactive: 0.703 | inactive: 0.68 | inactive: 0.778 | inactive: 0.665 | inactive: 0.771 |
| B5 | inactive: 0.776 | inactive: 0.829 | inactive: 0.828 | inactive: 0.724 | inactive: 0.735 | inactive: 0.762 |
| B6 | inactive: 0.431 | inactive: 0.357 | inactive: 0.551 | inactive: 0.48 | inactive: 0.497 | inactive: 0.505 |
| B7 | inactive: 1.15 | inactive: 0.804 | inactive: 1 | inactive: 0.977 | inactive: 0.638 | inactive: 0.959 |
| B8 | inactive: 0.994 | inactive: 0.925 | inactive: 0.965 | inactive: 0.877 | inactive: 0.855 | inactive: 1.24 |
| B9 | inactive: 0.952 | inactive: 1.02 | inactive: 0.929 | inactive: 0.748 | inactive: 0.685 | inactive: 1.34 |
| B10 | inactive: 0.828 | inactive: 0.567 | inactive: 0.763 | inactive: 0.566 | inactive: 0.762 | inactive: 0.758 |
| B11 | inactive: 0.291 | inactive: 0.259 | inactive: 0.294 | inactive: 0.243 | inactive: 0.274 | inactive: 0.302 |
| B12 | inactive: 0.739 | inactive: 0.698 | inactive: 0.752 | inactive: 0.591 | inactive: 0.725 | inactive: 0.813 |
| B13 | inactive: 0.928 | inactive: 0.689 | inactive: 0.783 | inactive: 0.753 | inactive: 0.768 | inactive: 0.604 |
| B14 | inactive: 0.924 | inactive: 0.631 | inactive: 0.457 | inactive: 0.569 | inactive: 0.608 | inactive: 0.511 |
| B15 | inactive: 0.913 | inactive: 0.887 | inactive: 0.689 | inactive: 0.749 | inactive: 0.823 | inactive: 0.851 |
| B16 | inactive: 0.744 | inactive: 0.789 | inactive: 0.721 | inactive: 0.66 | inactive: 0.793 | inactive: 0.988 |
| B17 | inactive: 0.295 | inactive: 0.495 | inactive: 0.311 | inactive: 0.383 | inactive: 0.415 | inactive: 0.514 |
| B18 | inactive: 1.62 | inactive: 2.12 | inactive: 1.86 | inactive: 1.6 | inactive: 1.55 | inactive: 2.4 |
| B19 | inactive: 1.42 | inactive: 1.39 | inactive: 1.17 | inactive: 1.03 | inactive: 1.07 | inactive: 1.22 |

| Binder | enrichment score [1] | enrichment score [2] | enrichment score [3] | enrichment score [4] | enrichment score [5] | enrichment score [6] |
| --- | --- | --- | --- | --- | --- | --- |
| B20 | inactive: 1.47 | inactive: 1.5 | inactive: 1.23 | inactive: 0.956 | inactive: 1.43 | inactive: 1.31 |
| B21 | active: 3.51 | active: 3.26 | active: 3.43 | active: 3.3 | active: 3.46 | inactive: 3.17 |
| B22 | inactive: 1.33 | inactive: 0.819 | inactive: 0.948 | inactive: 0.905 | inactive: 1.13 | inactive: 0.919 |
| B23 | inactive: 1.11 | inactive: 0.906 | inactive: 0.937 | inactive: 0.843 | inactive: 0.961 | inactive: 0.858 |
| B24 | inactive: 0.683 | inactive: 0.602 | inactive: 0.528 | inactive: 0.458 | inactive: 0.526 | inactive: 0.574 |
| B25 | inactive: 0.855 | inactive: 0.638 | inactive: 0.722 | inactive: 0.74 | inactive: 0.89 | inactive: 0.799 |
| B26 | inactive: 0.915 | inactive: 0.881 | inactive: 0.75 | inactive: 0.717 | inactive: 0.73 | inactive: 0.948 |
| B27 | inactive: 0.71 | inactive: 0.68 | inactive: 0.673 | inactive: 0.552 | inactive: 0.665 | inactive: 0.677 |
| B28 | inactive: 1.52 | inactive: 1.4 | inactive: 1.51 | inactive: 1.38 | inactive: 1.6 | inactive: 1.24 |
| B29 | inactive: 1.57 | inactive: 1.11 | inactive: 1.15 | inactive: 1.35 | inactive: 1.57 | inactive: 1.23 |
| B30 | inactive: 0.224 | inactive: 0.326 | inactive: 0.266 | inactive: 0.314 | inactive: 0.456 | inactive: 0.248 |
| B31 | inactive: 0.32 | inactive: 0.336 | inactive: 0.232 | inactive: 0.357 | inactive: 0.314 | inactive: 0.37 |
| B32 | inactive: 0.386 | inactive: 0.562 | inactive: 0.354 | inactive: 0.411 | inactive: 0.598 | inactive: 0.606 |
| B33 | inactive: 0.486 | inactive: 0.639 | inactive: 0.468 | inactive: 0.559 | inactive: 0.724 | inactive: 0.489 |
| B34 | inactive: 0.772 | inactive: 0.707 | inactive: 0.713 | inactive: 0.595 | inactive: 0.818 | inactive: 0.855 |
| B35 | inactive: 0.585 | inactive: 0.913 | inactive: 0.644 | inactive: 0.548 | inactive: 0.632 | inactive: 0.635 |
| B36 | inactive: 0.825 | inactive: 0.703 | inactive: 1.02 | inactive: 0.95 | inactive: 0.744 | inactive: 0.933 |
| B37 | inactive: 1.11 | inactive: 0.801 | inactive: 0.959 | inactive: 0.947 | inactive: 0.863 | inactive: 1.25 |
